# Assay results reported in publication PMC4336329 (PLoS ONE, 2015).
# In all, about 310,000 compounds went through this assay and about 2,200 (0.71%) showed an effect of 50% or more. Effects have a minus sign here. This is one part of the list.
# Target: human ether-à-go-go-related gene (hERG) potassium channel (human, UniProt Q12809)
# Assay: primary screen, population patch clamp on CHO cells stably expressing hERG
# Chain of human ether-à-go-go-related gene (hERG) potassium channel (Q12809 whole entry, looked up): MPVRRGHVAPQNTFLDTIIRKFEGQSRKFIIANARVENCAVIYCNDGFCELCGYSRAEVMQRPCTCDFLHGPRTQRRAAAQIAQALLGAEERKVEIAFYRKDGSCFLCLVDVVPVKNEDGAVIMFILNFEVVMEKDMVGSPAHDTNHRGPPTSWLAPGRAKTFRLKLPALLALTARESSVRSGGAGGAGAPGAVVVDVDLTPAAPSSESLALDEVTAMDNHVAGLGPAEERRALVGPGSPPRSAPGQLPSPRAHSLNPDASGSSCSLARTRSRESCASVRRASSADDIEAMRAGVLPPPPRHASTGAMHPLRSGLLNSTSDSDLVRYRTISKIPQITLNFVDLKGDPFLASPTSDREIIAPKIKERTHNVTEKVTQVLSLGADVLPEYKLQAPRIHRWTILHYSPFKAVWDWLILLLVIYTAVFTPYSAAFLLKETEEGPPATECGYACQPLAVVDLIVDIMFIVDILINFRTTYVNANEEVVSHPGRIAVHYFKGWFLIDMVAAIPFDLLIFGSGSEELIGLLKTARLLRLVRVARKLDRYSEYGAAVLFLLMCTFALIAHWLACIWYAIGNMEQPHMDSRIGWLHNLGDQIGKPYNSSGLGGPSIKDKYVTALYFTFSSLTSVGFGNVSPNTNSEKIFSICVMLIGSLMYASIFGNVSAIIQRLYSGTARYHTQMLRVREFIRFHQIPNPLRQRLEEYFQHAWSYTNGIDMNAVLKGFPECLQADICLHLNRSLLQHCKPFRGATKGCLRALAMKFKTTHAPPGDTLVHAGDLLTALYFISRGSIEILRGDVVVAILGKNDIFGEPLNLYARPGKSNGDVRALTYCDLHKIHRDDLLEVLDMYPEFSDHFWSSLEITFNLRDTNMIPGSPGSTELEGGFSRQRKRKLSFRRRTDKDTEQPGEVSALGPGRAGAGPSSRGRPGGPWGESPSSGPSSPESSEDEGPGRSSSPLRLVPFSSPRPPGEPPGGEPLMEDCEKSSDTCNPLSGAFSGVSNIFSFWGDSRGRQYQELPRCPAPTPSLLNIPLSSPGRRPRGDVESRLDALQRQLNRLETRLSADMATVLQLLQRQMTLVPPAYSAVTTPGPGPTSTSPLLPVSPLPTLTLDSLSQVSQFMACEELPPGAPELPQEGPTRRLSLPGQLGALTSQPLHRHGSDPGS
row,Compound,"hERG current change (%, negative = inhibition) at 1uM [%]"
1,CC1(C)CC(=O)C(C#N)=C(NCCCO)C1,14.6
2,COc1ccc(C(=O)C2CCCN(Cc3cccn3-c3cccnc3)C2)cc1OC (stereo not shown),-34.9
3,Cc1cc(C)n(CCN(C)C(=O)C2CCC(=O)N(CCc3cccc(F)c3)C2)n1 (stereo not shown),7.21
4,Cc1csc(NC(=O)C(F)(F)F)n1,10.5
5,CCOCC(=O)Nc1cc(Cl)ccc1C,19
6,OCCN(CCO)c1ccc2ccccc2c1,10.5
7,O=[N+]([O-])c1ccccc1/C=N/N1CCN(c2ccccn2)CC1,6.62
8,O=C(c1ccc(-c2cccc(C(F)(F)F)c2)o1)N1CCCC(C(F)(F)F)C1 (stereo not shown),-0.174
9,COc1ccc(C(=O)OCC(=O)NCC2CCCO2)c(F)c1 (stereo not shown),14.6
10,CN(C)c1ccc(NC(=O)CCn2c(=S)oc3ccccc32)cc1,17.2
11,CCc1ccc(C(=O)NNc2ccc(Cl)cc2)cc1,8.45
12,CN(Cc1ccccc1)Cc1nc2scc(-c3ccccc3)c2c(=O)[nH]1,18.7
13,COc1cc([N+](=O)[O-])ccc1NC(=O)CCCOc1cc(C)ccc1C,-2.49
14,O=C(NCC(O)c1ccccc1)c1cccc(S(=O)(=O)N2CCOCC2)c1 (stereo not shown),-1.89
15,Cc1nn(-c2nc3ccccc3[nH]2)c(=O)c2ccccc12,5.64
16,CC1CCC2(CC1)NC(=O)N(CC(=O)N1CCN(C(=O)c3cccs3)CC1)C2=O (stereo not shown),0.283
17,Cn1c(=O)n(C)c2cc(NS(=O)(=O)c3ccc(F)cc3)ccc21,5.9
18,CC1CN(/C(=N\S(=O)(=O)c2ccccc2)c2ccccc2)CC(C)O1 (stereo not shown),-5.56
19,CCn1c(SCC(=O)c2ccc(C)cc2)nnc1-c1ccoc1C,1.74
20,CNC(=O)OCc1n(C)cc[n+]1C.[I-],7.16

row,Compound,"hERG current change (%, negative = inhibition) at 1uM [%]"
1,Cc1nn(-c2ccccc2)c2c1c(C)c(CCC(=O)NCC1CCCO1)c(=O)n2C (stereo not shown),16.6
2,COc1cc(C(=O)NCCCNc2nc3cc(C)c(C)cc3cc2C#N)cc(OC)c1OC,23.9
3,CC(NC(=O)c1ccccc1)c1nnc(SCC(=O)NC2=NCCS2)n1C (stereo not shown),14.1
4,Cc1cccc(C(=O)NC2CCN(S(=O)(=O)c3ccc(F)cc3)CC2)c1,16.2
5,CN(C)S(=O)(=O)N(CCN1CCOCC1)Cc1ccccc1F,10.7
6,COc1ccc(N2CCN(Cc3nc4ccsc4c(=O)[nH]3)CC2)cc1,12.8
7,COc1cccc(C(c2c(NC(=O)c3ccco3)sc(C)c2C)N2CCOCC2)c1 (stereo not shown),5.05
8,COc1ccc(NC(=O)CC2C(=O)N(c3ccc(OC)cc3)C(=O)N2C(C)C)cc1 (stereo not shown),-6.1
9,O=C(Nc1ccccc1Cl)c1cc[n+]([O-])cc1,16.3
10,COC(CNC(=O)c1ccc2c(c1)ncn2-c1ccc(F)cc1F)OC,18.8
11,COc1cccc(OC)c1C(=O)Nc1ccc2c(c1)Cc1ccccc1-2,14.6
12,CC(C)On1c(SC(C)C)nc2ccccc2c1=O,6.43
13,CNC(=O)c1c(NC(=O)c2ccc(S(=O)(=O)N3CCCC3)cc2)sc2c1CCN(C(C)C)C2,11.9
14,CC(OC(=O)c1cccs1)C(=O)NCc1cccs1 (stereo not shown),3.43
15,C=CCNCCCCOc1cccc(Br)c1.O=C(O)C(=O)O,19
16,CCOC(=O)c1c(C2CC2)csc1NC(C)=O,-12.7
17,Cc1cc(C)c(OCC(=O)N(Cc2ccccc2)C2CCS(=O)(=O)C2)c(C)c1 (stereo not shown),2.23
18,CCN(C(=O)COC(=O)c1cc2c(s1)CCCCC2)C1CCS(=O)(=O)C1 (stereo not shown),4.31
19,CC(C)c1cc(CN2CCOCC2)cc(C(C)C)c1O,10.3
20,O=C(c1ccc(CS(=O)(=O)c2ccccc2)o1)N1CCOCC1,15.8

row,Compound,"hERG current change (%, negative = inhibition) at 1uM [%]"
1,CC(=O)NC(CC(=O)Nc1nc(-c2ccccc2)c(C(C)=O)s1)c1ccccc1 (stereo not shown),6.94
2,Cl.c1ccc2c(c1)OCC(C1=NCCN1)O2 (stereo not shown),9.14
3,CCC(C)N1CCN(C(=O)c2cc(OC)cc(OC)c2)CC1.O=C(O)C(=O)O (stereo not shown),16.2
4,C=CCn1c(SCC(=O)NCc2ccc3c(c2)OCO3)nnc1C1CCCCC1,-8.39
5,COc1ccc(S(=O)(=O)N2CCN(C(=O)C3CCC3)CC2)cc1,6.11
6,Cc1cc(NC(=O)COC(=O)CSc2nc3cc(Cl)ccc3n2Cc2ccccc2)no1,-1.77
7,N=C1/C(=C\c2ccc(OC(=O)c3ccccc3)cc2)C(=O)N=C2SC(N3CCOCC3)=NN12,8.75
8,CCOc1ccc(/C=C2\SC(=S)N(CCC(=O)Nc3ccc(C(=O)O)cc3)C2=O)cc1,22.1
9,O=C(CCS(=O)(=O)c1cccc2nsnc12)NC1CCCCC1,12.4
10,CCOC(=O)C(O)(c1ccc(NC(=S)NC(=O)c2ccc(Cl)cc2Cl)cc1)C(F)(F)F (stereo not shown),22.8
11,CCOC(=O)C1(CC2CC2)CCN(Cc2cnc(-c3ccccc3C)nc2)CC1,2.09
12,O=C(O)c1cc(Cl)c(Cl)cc1C(=O)Nc1cccc2ncccc12,-1.28
13,Cn1c(=O)oc2cc(S(=O)(=O)CCC(=O)NCCc3ccccc3)ccc21,16.6
14,CCOc1ccc(CCNc2nc3c(c(=O)n(C)c(=O)n3C)n2CC)cc1OCC,13.3
15,COc1ccc(/C=C2\SC(=S)N(CC(=O)Nc3nnc(C)s3)C2=O)cc1,13
16,Cc1cc(C)n2nc(CCCO)nc2n1,21.8
17,COc1ccc(/C=C(\NC(=O)c2ccc(C)cc2)C(=O)NCCCn2ccnc2)cc1,-91.7
18,CCOc1cccc2sc(N(CCCN(C)C)C(=O)c3ccc(C(=O)c4ccccc4)cc3)nc12.Cl,-29.5
